Measurements taken from PubChem BioAssay AID1508623 (National Center for Advancing Translational Sciences (NCATS), 2021).
Out of some 48,000 compounds screened, about 450 (0.94%) were called active. Roughly 19% stayed inconclusive and do not appear here. The call rests on the fitted dose curve; in most records, active means well fitted inhibition curve with a large enough effect; inconclusive means small, poorly fitted or top-dose-only effect; inactive means no such curve, though single readings can be large or run the other way. Some of the results follow.

Test: Primary qHTS for Identification of Small Molecule Inhibitors of Huntingtin Promoter Activity; further: nearly all actives have a fitted effect of over 50% in size
Settings: HEK293 HTT promoter firefly luciferase reporter (activity 0% = vehicle and -100% = no light), 24 h; series mostly up to 57.5 µM; activity change, negative = inhibition: at the top concentration
Procedure, shortened: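 HEK293 Fluc reporter, 2,500 cells/well, 24 h pre-culture; cpds up to 57.5 uM final, 24 h 37 degrees C; Dual-Glo, 10 min RT; normalized vehicle = 0%, zero RLU = -100%.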

Activity change, negative = inhibition, inactive:
COCCNC(=O)CSc1nc(-c2ccc(C)cc2)[nH]c1-c1ccc(OC)cc1 -1.91%, CC(C)CCNC(=O)C1CCC(CNS(=O)(=O)c2cccc3nsnc23)CC1 (stereo not drawn) -8.31% [at 11.5 µM], CCc1ccc(NC(=O)CN2C(C(=O)OC)=C(c3ccccc3)c3ccccc3S2(=O)=O)cc1 -24.2%, CCCc1nn2c(=O)cc(COC(=O)c3ccccc3NC(=O)c3ccc(OCC)cc3)nc2s1 -0.38%, Cc1ccc(C(=O)c2cn(Cc3ccccc3)c3ccccc3c2=O)cc1 -13.1%, Cc1ccccc1OCC(=O)Nc1ccccc1C(=O)OCc1cc(=O)n2nc(C3CC3)sc2n1 -28.5%, Cc1cccc(NC(=O)c2oc3ccccc3c2NC(=O)Cc2coc3cc(C)cc(C)c23)c1 5.83%, Cc1ccc(-c2c3c(=O)n(C)c(=O)n(C)c3c3c(C)nc4ccccc4n23)cc1 -11.3% [at 11.5 µM], Cc1cc(N2CCN(c3ccc(F)cc3)CC2)n2cnnc2n1 -9.98%, COc1ccc(Cl)cc1NC(=O)CSc1nc(=O)[nH]c2c1CCC2 -25.9%, O=C(NCCc1ccc(Cl)cc1)c1ccc(CSCc2ccc(Cl)cc2)o1 -21.8%, CCOc1ccc(NC(=O)CCC(=O)N2CCSc3ccccc32)cc1 -16.4%, CCCC(=O)n1nc(-c2cccnc2)nc1NCc1ccccc1 -2.23%, CCc1ccccc1NC(=O)Cn1c(=O)n(CCc2ccccc2)c(=O)c2ccccc21 -6.9%, COc1cccc(NC(=O)CSC2=Nc3ccccc3C3=NC(CC(=O)NCc4ccccc4OC)C(=O)N23)c1 (stereo not drawn) -0.8%, CCCCNC(=O)CCSc1nc(-c2ccc3c(c2)OCO3)cc(C(F)(F)F)n1 -2.32%, O=c1oc2ccc(Cl)cc2cc1-c1cn2c(n1)sc1ccccc12 -28.2%, CCOc1ccc(NC(=O)c2c(NCc3cccs3)sc3c2CCCCC3)cc1 6.24%, OC[C@@H](O)[C@H](O)[C@H](O)[C@@H](O)CO, COc1ccc(C2C=C(c3ccccc3)Nc3nc(NC(=O)/C=C/c4ccccc4OC)nn32)cc1 (stereo not drawn) -20.4%, Cc1ccnc2nc(NC(=O)c3ccccc3Cl)nn12 22.4%, Cc1cccc(N(CC(=O)N(C)Cc2ccccc2)S(=O)(=O)c2ccccc2)c1C -26.5%, CCc1ccc(S(=O)(=O)c2nnn3c2nc(NC(C)C)c2cc(Cl)ccc23)cc1 -10.4%, O=C(NCC1CCCCN1)c1cc(OCC(F)(F)F)ccc1OCC(F)(F)F (stereo not drawn) -30.3%, CC12CN3CC(c4ccccc4)(CN(C1)C3c1ccc(Cl)cc1)C2=O (stereo not drawn) -24.9%, CC(=O)c1cc(-c2ccccc2)n(CCC(=O)NC2CCCCC2)c1C -23.9%, CC1CCc2cc(F)cc3c(=O)c(C(=O)O)cn1c23 (stereo not drawn) 6.42%, COc1ccc(N2CCN(c3oc(/C=C/c4ccccc4OC)nc3C#N)CC2)cc1 -1.76%, CC(C)Oc1ccc(CNC(=O)c2cccc(NC(=O)c3nsc4ccccc34)c2)cc1 -1.21%, CCOc1ccc(CC(=O)Nc2c(C(=O)c3ccc(F)cc3)oc3ccc(Cl)cc23)cc1OCC 4.87%, Cc1cc(C)cc(NC(=O)N2CCC(N3CCN(Cc4ccccc4)C(=O)C3=O)CC2)c1 9.49%, O=C(Nc1ccc(C(=O)OCc2cc(=O)n3ccsc3n2)cc1)c1cccc(F)c1 -4.47%, COc1ccc(OC)c(CNC(=O)C2CCN(S(=O)(=O)c3ccc4[nH]c(=O)oc4c3)CC2)c1 0.884%, COc1ccc(N2Cc3cccc(C(=O)Nc4cccc(F)c4)c3C2=O)cc1 -4.4%, Cc1ccc(-c2cc(NC(=O)C(C)Oc3ccccc3F)on2)cc1 (stereo not drawn) 24%, CN(C)c1ccc(C(=O)Nc2ccc(-c3nc4ccccc4o3)cc2)cc1 16.5%, Cc1cc(NC(=O)C2CCCN(S(=O)(=O)c3cn(C)cn3)C2)ccc1Br (stereo not drawn) -27.6%, Cc1ccc(NC(=O)c2ccc(N(Cc3ccccc3)S(C)(=O)=O)cc2)cc1 -18.8%, CC(C)c1ccc(C2=NC(c3ccncc3)=Nc3ccc(F)cc3N2)cc1 -10.6%, CCCn1cc(S(=O)(=O)c2ccc(CC)cc2)c(=O)c2cc(F)c(N3CCN(C)CC3)cc21 6.41%, COc1ccc(OC)c(CCNC(=O)c2nn(C)c3c2CSc2ccccc2-3)c1 -27.1%, CNC(=O)c1ccc2nc(Cc3ccccc3)oc2c1 44.6%, CCC1CCc2c(sc(NC(=O)C3c4ccccc4Oc4ccccc43)c2C(=O)OC)C1 (stereo not drawn) -31.2%, Cc1ccc(C(=O)c2oc3ccccc3c2NC(=O)C(C)Oc2ccccc2Cl)cc1 (stereo not drawn) 3.99%, COc1ccc(NC(=O)c2c(NCc3cccs3)sc3c2CCCCC3)c(OC)c1 -9.9%, Cc1cc(Br)ccc1NC(=O)CCNS(=O)(=O)c1cccc2nonc12 -10.1%, O=C(Nc1ccc(Br)cc1F)c1cc2nc(-c3ccco3)cc(C(F)(F)Cl)n2n1 5.28%, O=S(=O)(c1ccc(OC(F)(F)F)cc1)N1CCC(c2nc3ccccc3s2)CC1 1.45%, CCCOc1ccc2nc(NC(=O)OC)[nH]c2c1, CCOc1ccc(OCC)c(Nc2nc3ccc(C(=O)c4ccccc4)cc3n3cnnc23)c1 0.313%, O=C(Cn1cc(SCc2ccccc2F)c2ccccc21)N1CCCC1 42.1%, CCCCOc1ccc(OCCCN2CCOCC2)cc1 11.8%, CCC(=O)Nc1ccccc1-c1nc2ccccc2n(CC(=O)Nc2ccc(C)c(C)c2)c1=O -8.8%, Cn1c(=O)c2cc(C(=O)Nc3cccc(C#N)c3)sc2c2ccccc21 -4.59%, COc1ccc(C2=NN(CC(=O)NCCc3ccccc3)C(=O)CC2)cc1 8.03%, COC(=O)c1ccc(NC(=O)NC(C)c2c(-n3cccc3)sc(C)c2C)cc1 (stereo not drawn) -31.6%, O=C(NC1CCCC1)c1ccc(CSc2nc3cccnc3n2Cc2ccccc2)cc1 -21.2%, COC(=O)c1sc2cccc(F)c2c1S(=O)(=O)Nc1cc(C)c(Cl)cc1OC -19.6%, O=C(COc1ccc(Cl)cc1)Nc1ccc(-c2nc3cc(Cl)ccc3o2)c(O)c1 56.4%, CCCNC(=O)C1CCC(Cn2c(=O)c3sccc3n(CC(=O)N3CCCC3)c2=O)CC1 (stereo not drawn) -5.09%, CCc1cccc(C)c1NC(=O)CN1C(=O)c2ccccc2Sc2ncccc21 -15.7%, CCCNC(=O)CN1C(=O)c2c(c3ccccc3n2C)C1c1ccc(OC)cc1 (stereo not drawn) -26.1%, COc1ccc(CNC(=O)c2cc3oc4ccccc4c3n2C)cc1OC -27.6%
